Assay results published in patent US20230416360A1 (SIMCERE ZAIMING PHARMACEUTICAL, published 2023).

T1: human CD22-ECD-His (human, UniProt P20273 20-687)
T1 construct: Made in HEK293E, purified on nickel column; also called hCD22-ECD-His; recombinant human CD22-ECD His; not shown: His tag
T1 sequence: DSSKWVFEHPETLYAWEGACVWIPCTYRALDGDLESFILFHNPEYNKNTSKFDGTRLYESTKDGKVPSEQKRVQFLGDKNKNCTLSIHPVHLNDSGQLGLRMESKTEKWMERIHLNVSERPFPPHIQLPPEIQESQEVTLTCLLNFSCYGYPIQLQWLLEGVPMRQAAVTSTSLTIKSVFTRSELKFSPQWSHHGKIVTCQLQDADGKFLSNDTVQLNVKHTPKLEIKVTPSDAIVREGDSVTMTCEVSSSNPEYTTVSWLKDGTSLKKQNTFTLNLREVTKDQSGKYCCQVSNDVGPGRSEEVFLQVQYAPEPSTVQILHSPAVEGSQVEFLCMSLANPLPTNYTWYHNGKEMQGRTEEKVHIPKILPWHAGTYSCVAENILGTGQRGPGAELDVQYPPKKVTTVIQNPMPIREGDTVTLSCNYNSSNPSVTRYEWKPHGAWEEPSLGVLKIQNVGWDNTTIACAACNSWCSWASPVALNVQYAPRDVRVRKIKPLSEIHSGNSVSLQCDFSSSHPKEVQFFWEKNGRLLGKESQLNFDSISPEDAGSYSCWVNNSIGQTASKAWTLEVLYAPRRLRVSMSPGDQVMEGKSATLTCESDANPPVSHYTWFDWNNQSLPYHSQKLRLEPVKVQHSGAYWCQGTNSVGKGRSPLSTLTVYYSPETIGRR

T2: murine CD22-ECD-His (mouse, UniProt P35329 22-708)
T2 construct: extracellular domain; Bought; also called mouse CD22; murine CD22 protein
T2 sequence (looked up): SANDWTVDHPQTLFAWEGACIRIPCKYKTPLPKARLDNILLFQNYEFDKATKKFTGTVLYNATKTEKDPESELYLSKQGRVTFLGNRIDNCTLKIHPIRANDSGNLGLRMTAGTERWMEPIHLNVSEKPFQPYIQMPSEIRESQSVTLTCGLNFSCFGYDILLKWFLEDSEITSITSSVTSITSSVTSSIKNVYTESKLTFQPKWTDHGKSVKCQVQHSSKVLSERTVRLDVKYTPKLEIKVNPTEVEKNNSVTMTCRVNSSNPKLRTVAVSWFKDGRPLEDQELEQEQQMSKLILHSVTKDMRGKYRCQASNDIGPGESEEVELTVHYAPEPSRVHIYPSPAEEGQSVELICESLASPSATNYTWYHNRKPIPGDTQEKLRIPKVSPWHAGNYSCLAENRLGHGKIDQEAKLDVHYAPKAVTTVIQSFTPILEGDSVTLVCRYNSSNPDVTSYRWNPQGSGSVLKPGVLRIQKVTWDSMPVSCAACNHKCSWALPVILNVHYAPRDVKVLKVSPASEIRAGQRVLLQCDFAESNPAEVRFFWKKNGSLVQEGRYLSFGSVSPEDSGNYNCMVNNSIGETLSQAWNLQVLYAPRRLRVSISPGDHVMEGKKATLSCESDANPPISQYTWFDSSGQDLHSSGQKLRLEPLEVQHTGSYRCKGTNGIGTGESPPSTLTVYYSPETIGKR

B1: S002-NB151-36 VHH-Fc (Fc fusion)
chain: QVQLVESGGGLVQAGGSLRLSCAASGLTFSYYGMGWFRQAPGKEREFVAAINWSGTSTYYADSVKDRFTVSRDNAKNTAYLHMNNLKPEDTAVYYCAARKYSSSQAMGLPNDIDYWGQGTQVTVSS[human IgG1 Fc with changes cut from this listing]
notes: VHH cloned into vector BI3.4-huIgG1 (hinge and human IgG1 Fc), made in HEK293E; also called 5002-NB151-36
B2: S002-NB151-2 VHH-Fc (Fc fusion)
chain: QVQLVESGGGLVQAGDSLRLSCAASGRTFSPSTMAWFRQAPGKERELVARIGWTYGDTYYVDSAKGRFTISMDNVKNTVYLQMNSLKPEDTAVYYCAALFRGGLSYNFSNRGTQVTVSS[human IgG1 Fc with changes cut from this listing]
notes: VHH cloned into vector BI3.4-huIgG1 (hinge and human IgG1 Fc), made in HEK293E; also called 5002-NB151-2
B3: S002-NB150-152n VHH-Fc (Fc fusion)
chain: EVQVVESGGGLVQTGGSLRLSCAASGRPFDWLTVGWFRQAPGKEREFVAAISQSGGRIFYSDSVKGRFTISRDNAKNTAFLQMNSLKPEDTAVYSCAAQMRGYSRAAYPDEYDYWGQGTQVTVSS[human IgG1 Fc with changes cut from this listing]
notes: VHH cloned into vector BI3.4-huIgG1 (hinge and human IgG1 Fc), made in HEK293E
B4: S002-NB151-64 VHH-Fc (Fc fusion)
chain: QVQLVESGGGLVQPGGSLTLSCAASGFDFSFYTMTWVRQAQGKGLEWVSTISTGGGGSNYADSVKGRFTISRDNAKKTLYLQMTSLKPEDTAVYYCASHRRGYMFVSSRKNEYDYWGRGTQVTVSS[human IgG1 Fc with changes cut from this listing]
notes: VHH cloned into vector BI3.4-huIgG1 (hinge and human IgG1 Fc), made in HEK293E; also called 5002-NB151-64
B5: S002-NB150-57 VHH-Fc (Fc fusion)
chain: QVQLVESGGGLVQAGDSLRLSCAVTGRAYSRSDMGWFRQAPGKEREIVAVITFGGGTDYADSVKGRFTISSEDTKNTLYLQMNSLQPEDTAVYYCAAGFRGSRWSTAARRKEDDYAFWGQGTQVTVSS[human IgG1 Fc with changes cut from this listing]
notes: VHH cloned into vector BI3.4-huIgG1 (hinge and human IgG1 Fc), made in HEK293E; also called 5002-NB150-57
B6: S002-NB150-42 VHH-Fc (Fc fusion)
chain: QVQLVESGGGLVQAGDSLKLSCLASGITFSSYYMSWFRQAPGKEREFVAGVGRSGAPSHHADSVKGRFTISRDNAKSAVYLQMNSLQPEDTAVYFCAAKWMAASTTVADYWGQGTQVTVSS[human IgG1 Fc with changes cut from this listing]
notes: VHH cloned into vector BI3.4-huIgG1 (hinge and human IgG1 Fc), made in HEK293E; also called 5002-NB150-42
B7: S002-NB150-159n VHH-Fc (Fc fusion)
chain: QVQLVESGGGLVQAGDSLRLACEASGRTATISTMGWFRQAPGKEREFVGRIDWSAESTYIVDSVKGRFIISRDNAKNAGYLQMNSLKPVDTAVYYCAAIVVRERSYKYWGQGTQVTVSS[human IgG1 Fc with changes cut from this listing]
notes: VHH cloned into vector BI3.4-huIgG1 (hinge and human IgG1 Fc), made in HEK293E; also called S002-NB150-15911
B8: S002-NB151-92 VHH-Fc (Fc fusion)
chain: QVQLVESGGGLVQSGGSLRLSCAASGFTFSDYTMNWVRQAPGKGLEWVSEISSGGHFKSNADSVKDRFTISRDNAKNTLYLQMNSLKPEDTAVYFCAKCPRPSVYCRDYESTSLYRGQGTQVTVSS[human IgG1 Fc with changes cut from this listing]
notes: VHH cloned into vector BI3.4-huIgG1 (hinge and human IgG1 Fc), made in HEK293E; also called 5002-NB151-92

Each binder was assayed against T1, human CD22-ECD-His (assay: SPR (Biacore), antibody captured on Protein A, hCD22-ECD-His analyte).
Procedure: Sample buffer and running buffer were HBS-EP+(10 mM HEPES, 150 mM NaCl, 3 mM EDTA, 0.05% surfactant P20) (GE Healthcare; BR-1006-69). The flow-through cell was set to 25° C. The sample block was set to 16° C. Both were pretreated with the running buffer. In each cycle, the antibody to be tested was first captured with a Protein A chip, then a single concentration of CD22 antigen protein was injected. The binding and dissociation process of the antibody and the antigen protein was recorded, and finally Glycine pH 1.5 (GE Healthcare; BR-1003-54) was used to complete chip regeneration. […] The concentration started from 200 nM (see the detailed results for the actual concentration in the test) and was diluted at 1:1, making a total of 5 concentrations. The dissociation phase was monitored for up to 600 s and was triggered by switching from sample solution to running buffer. The surface was regenerated by washing with a 10 mM of glycine solution (pH 1.5) for 30 s at a flow rate of 30 μL/min. Bulk refractive index difference was corrected by subtracting the response obtained from the goat anti-human Fc surface. Blank injection was also subtracted (=double reference). For calculation of apparent KD and other kinetic parameters, Langmuir 1:1 model was used.

Kd [nM]	koff [s⁻¹]	kon [M⁻¹ s⁻¹]	Binder
5.97	0.00052	87300	B1
48.9	0.000827	16900	B2
2.08	0.000442	212000	B3
8.68	0.00207	239000	B4
3.7	0.000407	110000	B5
2.16	0.000423	196000	B6
2.4	6.95e-05	28900	B7
25.2	0.00111	44000	B8

These binders were tested against T3, cynomolgus monkey CD22 on peripheral blood B cells (cynomolgus monkey (Macaca fascicularis)) (assay: FACS, cynomolgus PBMC, CD20+ B cells, antibody 10 nM).
T3 construct: whole, on cells; also called cynomolgus monkey B cells
Procedure: (§1) After the cell suspension was centrifuged, the cells were resuspended in PBS containing 1% BSA, and then the cells were counted. […] After washing the cells three times, APC-labeled secondary antibody anti-human IgG Fc (catalog number: 409306, purchased from Biolegend) was added. After incubation at room temperature in the dark for 30 minutes, the cells were washed 5 times, gently resuspended with PBS containing 1% BSA, and detected and analyzed by FACS (FACS Canto™, purchased from BD Company).

Proportion of VHH-Fc antibody positive cells to B cells (%)	Binder
10	B1
86	B2
6	B3
4	B4
16	B5
36	B6
18	B7
69	B8

Each binder was assayed against T3, cynomolgus monkey CD22 on peripheral … (assay: FACS, cynomolgus PBMC, CD20+ B cells, antibody 100 nM).
Procedure: as §1

Proportion of VHH-Fc antibody positive cells to B cells (%)	Binder
40	B1
84	B2
14	B3
19	B4
58	B5
80	B6
30	B7
75	B8

These binders were tested against T2, murine CD22-ECD-His (assay: ELISA on coated murine CD22-ECD-His, lower panel).
Procedure: (§2) The plate was sealed with plastic film and incubated overnight at 4° C., the plate was washed 2 times with PBS the next day, and then a blocking solution [PBS+2% (w/w) BSA] was added for blocking at room temperature for 2 hours. […] After incubation at 37° C. for 2 hours, the plate was washed 3 times with PBS. HRP (horseradish peroxidase)-labeled secondary antibody (purchased from Sigma, catalog number: A0170) was added, and incubated at 37° C. for 2 hours, and the plate was washed 5 times with PBS. TMB substrate was added at 50 μl/well, and incubated at room temperature for 30 minutes, then a stop solution (1.0 N HCl) was added at 50 μl/well.

binding result	Binder
no binding (tested: 100 nM)	B1
no binding (tested: 100 nM)	B2
no binding (tested: 100 nM)	B3
no binding (tested: 100 nM)	B4
no binding (tested: 100 nM)	B5
no binding (tested: 100 nM)	B6
no binding (tested: 100 nM)	B7
no binding (tested: 100 nM)	B8

These binders were tested against T1, human CD22-ECD-His (assay: ELISA, coated hCD22-ECD-His, antibody 0.0001 nM).
Procedure: as §2

OD450	Binder
0.11	B1
0.3	B2
0.13	B3
0.17	B4
0.13	B5
0.12	B6
0.09	B7
0.08	B8
